The source of these data is PubChem BioAssay AID463173 (ICCB-Longwood Screening Facility, Harvard Medical School, 2010).

Structures are written as SMILES. Out of some 52,000 compounds screened, about 4,300 (8.3%) were called active. Cut-off read from the data, not from the text of the source: active = survival mostly below about 52% (no sharp cut-off); inactive = mostly above about 56%. This is one part of the list.

This assay has as its system DeltatarO mutant. Kind of assay: S. aureus survival, RN4220 and DeltatarO strains – OD600, teichoic acid synthesis inhibitors, primary screen (AID 463173). Particulars: S. aureus RN4220 wild type/DeltatarO growth, OD600, 18 h, active compounds read low, screened at 18.75 µg/mL (by protocol).
Regarding `Cc1ccc(-c2nc3cc(Cl)ccc3o2)cc1NC(=O)c1cc2ccccc2o1`, the survival is active: 43%.
Consider `Cc1c(C(=O)N(C)C)sc2c1c(=O)n(-c1ccccc1C(F)(F)F)c(=O)n2Cc1ccccc1C#N`, for which the survival is inactive: 93%.
As for `COc1ccc(C(=O)NCc2ccc3c(c2)CCN3C(C)=O)cc1OC`, the survival was inactive: 83%.
Turning to `Cc1oc(-c2ccc(C(=O)NCCCOC(C)C)cc2)nc1CS(=O)(=O)c1ccccc1`, the survival is active: -4%.
As to `CCn1ccc2cc(S(=O)(=O)N3CCCN(C(=O)Nc4ccc(C)cc4Cl)CC3)ccc21`, the survival is inactive: 75%.
Consider `COc1cc2c(cc1OC)n(CC(=O)Nc1ccc(C)cc1C)c(=O)n1nc(-c3ccccc3)nc21`, for which the survival is inactive: 82%.
To `O=C(NN1C(=O)C2C3C=CC(C3)C2C1=O)c1ccccc1` (stereo not drawn) belongs inactive: 80%.
As to `Cc1cc(Nc2ccccc2F)n2nc(Cc3ccc(Cl)cc3)nc2n1`, the survival is active: 44%.
Take `COc1cccc(CNC(=O)CSc2cc(C)[nH]c(=O)n2)c1`: the survival is inactive: 94%.
Take `Cc1c(Cl)cccc1NC(=O)CSc1nc(=O)n(Cc2ccncc2)c2c1CCC2`: the survival is inactive: 107%.
For the compound `CCOc1ccc2c(c1)c(=O)c(S(=O)(=O)c1ccc(CC)cc1)cn2CC`, the survival was inactive: 70%.
In the case of `COc1ccc(-c2nnc(SCC(=O)N3CCCCC3)o2)cc1` it was inactive: 81%; in that of `CCOc1ccccc1-c1noc(CSc2nnc(-c3ccncc3)n2-c2ccc(F)cc2)n1`, inactive: 57%; in that of `Cc1c(C(=O)Nc2ccccc2Br)oc2ccccc12`, inactive: 70%.
Regarding `CC1CCN(C(=O)CN2c3ccc(Br)cc3-c3ccccc3S2(=O)=O)CC1`, the survival is inactive: 101%.
For the compound `O=C(COc1ccccc1)Nc1c(C(=O)N2CCN(c3ccc(F)cc3)CC2)oc2ccccc12`, the survival is inactive: 102%.
With `CC(C)c1ccc(Nc2cc(C(=O)NCCCN(C)Cc3ccccc3)c3ccccc3n2)cc1`, the survival was inactive: 134%.
Consider `Cc1cccc(NC(=O)CSc2ncc3c(n2)-c2cc(Cl)ccc2N(C)S3(=O)=O)c1C`, for which the survival is inactive: 107%.
Regarding `CC(=O)N1CCN(C(=O)C(=O)Nc2c3c(nn2-c2ccc(Cl)cc2)CSC3)CC1`, the survival was active: -1%.
To `COC(=O)c1ccc(C2c3c(-c4ccc(Br)cc4)n[nH]c3C(=O)N2c2ccc(Cl)cc2)cc1` (stereo not drawn) belongs inactive: 93%.
For `COc1cccc(-n2c(-c3ccco3)nc3c(cnn3-c3ccccc3C)c2=O)c1`, the survival was inactive: 85%.
Turning to `O=C(CCCOc1ccccc1)Nc1nccs1`, the survival is inactive: 85%.
Turning to `CN1CCN(Cc2nnnn2CC2CCCO2)CC1` (stereo not drawn), the survival is inactive: 95%.
Consider `COc1ccc(-c2nc(Cn3c(SCc4cccc(F)c4)nc4cccnc43)c(C)o2)cc1`, for which the survival is inactive: 76%.
On to `Cn1cc(S(=O)(=O)N2CCCCCC2)cc1C(=O)Nc1ccccc1F`, for which the survival was inactive: 88%.
`COc1ccc2oc(-c3ccc(C)c(NC(=O)c4sc5ccccc5c4Cl)c3)nc2c1`: the survival was active: 48%.
To `Cc1cccc(C)c1NC(=O)N1CCC(C(N)=O)(N2CCCCC2)CC1` belongs inactive: 106%.
To `O=C(Nc1ccc(F)cc1F)c1cc2ccc3cccnc3c2[nH]1` belongs inactive: 57%; to `Cc1ccccc1Nc1cc(C(=O)NC2CCC(C)CC2)c2ccccc2n1` (stereo not drawn), inactive: 78%; to `CCOC(=O)c1ccc(NC(=O)c2c(NCc3cccc(OC)c3)sc3c2CCC3)cc1`, inactive: 69%.
For the compound `Cc1cccc(CSc2nc3ccncc3n2Cc2ccc(C(=O)O)cc2)c1`, the survival is inactive: 72%.
To `O=C(Nc1ccc(-c2cn3cccnc3n2)cc1)c1ccccc1F` belongs inactive: 80%.
To `Cc1ccc(OCc2ccc(-c3nc(C#N)c(N4CCN(c5cccc(Cl)c5)CC4)o3)o2)cc1` belongs inactive: 55%; to `CCOc1ccccc1CNC(=O)CCCn1nc(C)c2sc3ccccc3c2c1=O`, inactive: 85%; to `COc1cc(NC(=O)Cn2nc(C(F)(F)F)c3c2CCCC3)cc(OC)c1OC`, inactive: 83%.
In the case of `O=C(CSc1nnnn1Cc1ccccc1)Nc1ccccc1` it was inactive: 89%.
As to `COc1ccc(N2CCN(c3oc(-c4ccccc4C)nc3S(=O)(=O)c3ccccc3)CC2)cc1`, the survival was inactive: 116%.
To `Cc1cccc(OCC(=O)Nc2c(C(=O)N3CCN(c4ccccc4)CC3)oc3ccccc23)c1` belongs inactive: 77%.
For the compound `CCCCN(CCCC)S(=O)(=O)c1ccc(C(=O)Nc2sc3c(c2C(N)=O)CCN(CC)C3)cc1`, the survival was inactive: 77%.
For `COc1cc(NC(=O)Cn2nc(Cc3cccnc3)c3ccccc3c2=O)cc(OC)c1OC`, the survival is inactive: 71%.
As for `CCc1nc2ccccc2n1CCCCOc1ccc(Cl)cc1`, the survival is active: -3%.
For `CC(C)n1nnnc1SCC(=O)OC1CCCCC1`, the survival was inactive: 75%.
Consider `CCOC(=O)c1c(C)[nH]c(CCC(=O)Nc2ccccc2OCC)c1C`, for which the survival was inactive: 78%.
Consider `COc1ccc2oc(=O)cc(CN3CCN(c4ccccc4OC)CC3)c2c1`, for which the survival is inactive: 77%.
For `COCCCNC(=O)CSc1nc(-c2ccc(OC)cc2)[nH]c1-c1ccc(OC)cc1`, the survival was inactive: 86%.
In the case of `CN(CC(=O)Nc1ccc2c(c1)OCO2)Cc1ccccc1` it was inactive: 53%.
In the case of `CCC(=O)N1c2ccccc2CC1C(=O)NCCN1CCN(c2cccc(Cl)c2)CC1` (stereo not drawn), the survival was inactive: 87%.
For the compound `CC(=O)N1CCCc2cc(S(=O)(=O)N3CCC(C(=O)NCc4ccccc4Cl)CC3)ccc21`, the survival was inactive: 112%.
As to `O=C(NCc1ccccc1Cl)c1ccc2nc(Cc3ccccc3)oc2c1`, the survival is inactive: 60%.
For `COc1ccc(CNC(=O)c2ccc(CS(=O)(=O)c3ccc(OC)cc3)o2)cc1`, the survival is inactive: 94%.
Turning to `Cc1nn(CCC(=O)N2CCN(c3ccccc3F)CC2)c(C)c1S(=O)(=O)N1CCCC1`, the survival was inactive: 109%.
For the compound `COc1ccc(NC(=O)c2cc3ccc(O)cc3o/c2=N\O)cc1`, the survival was inactive: 97%.
In the case of `CCC1CN(C(=O)N2CCC(C(=O)NCCCc3ccccc3)CC2)c2ccccc2O1` (stereo not drawn) it was inactive: 69%; in that of `CCN1CCN(c2cc(C)c3cc(NC(=O)c4cc(Br)ccc4Cl)ccc3n2)CC1`, active: 32%; in that of `CCCC12CN3CC(C)(CN(C1)C3c1cn(CC)c3ccccc13)C2=O` (stereo not drawn), inactive: 83%.
For the compound `Cc1ccc(S(=O)(=O)N(CC(=O)O)CC(=O)O)cc1`, the survival was inactive: 72%.
Consider `Cc1cc(C)cc(NS(=O)(=O)N(C)C)c1`, for which the survival is inactive: 75%.
Take `CCN(CCCNC(=O)CSc1cc(=O)n(C)c2cc(Cl)ccc12)c1ccccc1`: the survival was inactive: 59%.
